The record followed here is the RNAGym collection of RNA variant scans (doi:10.7554/elife.90254).

Read counts are not given, so values of variants with three or more changes are uncertain.

The chains are these.
B1: LINE1-full (parent)
chain: UACGUAGGUGGUUUUCCCCUGAUAGUGCUAAGGGGGCCUGGAAGUUUGGACUGGGCAGAGCUCAACACAGCGUGGCAAAGUGGCUGUGGCUAGACUGCCUCUCUGGAUUCCUCGUCACUCAGCAGGGCAUCUCUGAGAGAAAUGCC

The variants in the series derive from B1. In words: self-cleavage, relative activity (ratio to wild type); higher = more cleavage; in vitro, sequencing; the parent is a self-cleaving ribozyme.
As to AACGUAGGUGGUUUUCCCCUGAUAGUGCUAAGGGGGCCUGGAAGUUUGGACUGGGCAGAGCUCAACACAGCGUGGCAAAGAGGCUGUGGCUAGGCUGCCUCUCUGGAUUCCUCGCCACUCAGCAGGGCAUCUCUGAGAGAAAUGCC [U1A U81A A94G U115C], the self-cleavage is 0.
With CACGUAGGUGGUUUUCCCCUGAUAGUGCUGAGGGGGCCGGGAAGUUUGGACUGGGCAGAGCUCAACACAGCGUGGCAAAGUGGCUGUGGCUAGACUGCCUCUCUGGAUUCCUCGUCACUCAGCAGGGCAUCUAUGAGAGAAAUGCC [U1C A30G U39G C133A], the self-cleavage amounted to 0.84.
For the variant CACGUAGGUGGUUUUCCCCUGGUAGUGCUAAGGGGGCCUGGAAGUUUGGACUGGGCAGAGCUCAACACAGCGUGGCAAAGUGGCUGCGGCUAGACUGCCUCUCUGGAUUCCUCGUCACUCAGCAGGGCAUCCCUGAGAGAAAUGCC [U1C A22G U87C U132C], the self-cleavage came to 0.4.
As for CGCGUAGGUGGUUUUCCCCUGAUAGUGCUAAGGGGGCCCGGAAGUUUGGACUGGGCAGAGCUCAACACAGCGUGGCAAAGUGGCUGUGGCUAGACUGCCUCUCUGGAUUCCUCGUCACUCAGCGGGGCUUUUCUGAGAGAAAUGCC [U1C A2G U39C A124G A129U C131U], the self-cleavage amounted to 1.31.
As to CACGUAGGUGGUUUUCCCCUGGUAGUGCUGAGGGGGCCUGGUAGUUUGGACUGGGCAGAGCUCAACACAGCGUGGCAAAGUGGCUGUGGCUAGACUGCCUCUCUGGAUUCCUCGUCACUCAGCAGGGCAUCUCUGAGAGAAAAGCC [U1C A22G A30G A42U U143A], the self-cleavage turned out to be 1.13.
As to CACGUAGGUGGUUUUCCCCUGAUAGUGCUAAGGGGGCCUGGAGGUUUGGACUGGGCAGAGCUCAACACAGCGUGGCAAAGUGGCUGUGGCUAGACUGCCUCUCUGGAUUCCUCGUCACUCAGCAGGGCAUCUCUGGGAGAAAUGCC [U1C A43G A136G], the self-cleavage came out at 0.86.
On to CGCGUAGGUGGUUUUCCCCUGAUAGUGCUAAGGGGGCCUGGAAGUUUGGACUGGGCAGAGCUCAGCACAGCGUGGCAAAGUGGCUGUGGCUAGACUGCCUCUCUGGAUUCCUCGUCACUCAGCUGGGCAUCUCUGAGAGAAAUGCC [U1C A2G A65G A124U], for which the self-cleavage worked out at 0.22.
Regarding CGCGUAGGUGGUUUUCCCCUGAUAGUGCUAAGGGGGCCUGGAAGUUUGGACUGUGCGGAGCUCAACACGGCGUGGCAAAGUGGCUGUGGCUAGACUGCCUCUCUGGAUUCCUCGUCACUCAGCAGGGCAUCUCUGAGAGAAAUGCC [U1C A2G G54U A57G A69G], the self-cleavage amounted to 0.06.
As to AACGUAGGUGGUUUUCCCCUGAUAGUGCUAAGGGGGCCUGGAAGUUUGGACUGGGCAGAGCUCAACACAGCGCGGCAAAGUGGCUGUGGCUAGACUGCCUCUCUGGAUUCCACGUCACUCAGCAGGGCGUCUCUGAGAGAAAUGCC [U1A U73C U112A A129G], the self-cleavage was found to be 2.3.
The same measure for CACGUAGGUGGUUUUCCCCUGAUAGUGCUAGGGGGGCCUGGAAGUUUGGACUGGGCAGAGCUCAACACAGCGUGGCAAAGUGGCUGUGGCUAGACUGCCUCACUGGAUUCCUCGUCACUCAGCAGGGCAUCUCUGAGAGAAAUGCC [U1C A31G U102A]: 1.82.
Consider CACGUGGGUGGUUUUCCCCUGAUAGAGCUAAGGGGGCCUGGAAGUUUGGACUGGGCAGAGCUCAACACAGCGUGGCAAAGUGGCUGUGGCUAGACUGCCUCUCUGGAUUCCUCGUCACUCAGCAGGGCAUCCCUGAGAGAAAUGCC [U1C A6G U26A U132C], for which the self-cleavage was determined as 1.05.
The same measure for CACGUGGGUGGUUUUCCCCUGAUAGUGCUAAGGGGGCCUGGAAGUUUGGACUGGGCAGAGCUCAACACAGCGUGGCAAAGUGGCUGUGGCUAGACUGCCUCUCUGGAUUCCUCGUCACUCAGCAGGGCAUCUCUGAGAGAAACGCC [U1C A6G U143C]: 1.02; for CACGUAGGUGGUUUUCCCCUGAUAGUGCUGAGGGGGCCUGGAAGUUUGGACUGGGCAGAGCUCAACACAGCGUGGCAAAGUGGCUGUGGCUAUACUGCCUCUCUGGAUUCCUCGUCACUCAGCAGGGCAUCUCUGAGAGAAAUGCC [U1C A30G G93U]: 0.08.
Take CACGUGGGUGGUCUUCCCCUGAUAGUGCUUAGGGGGCCAGGAAGUUUGGACUGGGCAGAGCUCAACACAGCGUGGCAAAGUGGCUGUGGCUGGACUGCCCCUCUGGAUUCCUCGUCACUCAGCAGGGCAUCUCUGAGAGAAAUGCC [U1C A6G U13C A30U U39A A92G U100C]: the self-cleavage was 0.
The same measure for CGCGUAGGUGGUUUUCCCCUGAUAGUGCUAAGGGGGCCUGGAAGUUUGGACUGGGCAGAGCUCAACACAGCGUGGCAAAGUGGCAGUGGCUAGACUGCCUCUCUGGAUUCCCCGUCACUCAGCAGGGCAUCUCUGAGAGAAACACC [U1C A2G U85A U112C U143C G144A]: 0; for CACGUAGGUGGUUUUCCCCUGAUAGUGCUAAGGGGGCCUGGUAGUUUGGACUGGGCAGAGCUCAACACAGCGUGGCAAAGUGGCUGUGGCUAGACUGCCUCUCUGGAUUCCCCGUCACUCAGCAGGGCAUCUCUGAGAGAAAUGCC [U1C A42U U112C]: 0.94.
For the variant AACGUAGGUGGUUUUCCCCUGAUAGUGCUAAGGGGGCCUGGAAGUUUGGACUGGGCAGAGCUCAACACAGCGUGGCAAAGUGGCUGAGGCUAGACUGCCUCACUGGAUUCCUUGUCACUCAGCAGGGCAUCUCUGAGAGAAAUGCC [U1A U87A U102A C113U], the self-cleavage was determined as 0.08.
Regarding CGCGUAGGUGGUUUUCCCCUGAUAGUGCUAAGGAGGCCUGGAAGUUUGGACAGGGCAGAGCCCAACGCAGCGUGGCAAAGUGGCUGUGGCUAGACUGCCUCUCUGGAUUCCUCGUCACUCAGCAGGGCAUCCCUGAGAGAAUUGCC [U1C A2G G34A U52A U62C A67G U132C A142U], the self-cleavage turned out to be 0.33.
The value for CACGUAGGUGGUUUUCCCCUGAUAGUGCUAAGGGGGCCUGGAGGUUUGGACUGGGCAGAGCUCAACACAGCGUGGCGAAGUGGCUGUGGCUAGACUGCCUCUCUGGAUUCCUCGUCACUCAGCAGGACAUCUCUGAUAGAAAUGCC [U1C A43G A77G G127A G137U] was 1.46.
The value for CACGUAGGUGGUUUUCCCCUGAUAGUGCUAGGGGGGCCUGGAAGUUUGGACUGGGCAGAGCUCAACACAGCGUGGCAAAGUGGCUGUGGCUAGACAGCCUCUCUGGAUUCCUCGUCACUCAGCAGGGCAUCUCUGAGGGAAAUGCC [U1C A31G U96A A138G] was 0.16; that for CACGUGGGUGGUUUUCCCCCGAUAGUGCUAAGGGGGCCUGGAAGUUUGGACUGGGCAGAGCUCAACACAGCGUAGCAAAGUGGCCGUGGCUAGACUGCCUCUCUGGAUUCCUCGUCACUCAGCAGGGCAUCUCUGAGAGAAAUGCC [U1C A6G U20C G74A U85C] was 0.52; that for CGCGUAGGUGGUUUUCCCCUGAUAGUGCUAAGGGGGCCUGGAGGUUUGGACUGGGCAGAGCUCAACACAGCGUGGCAAAGUAGCUGUGGCUAGACUGCCUCUCUGGAUUCCUCGUCACUCAGCAGGGCAUCUCUGAGAGAAAUGCC [U1C A2G A43G G82A] was 0.96.
The value for AACGUAGGUGGUUUUCCCCUGAUAGUGCUAAGGGGGCCUGGAAGUUUGGACUGGGCAGAGCUCAACACAGCGUGGCAAAGUGGCUGUGGCUAGACUGCCUCUCUGGAUUCCCCGUCACUCAGCAGGGCAUCUCUGGGAGAAAUGCC [U1A U112C A136G] was 1.7; that for AACGUAGGUGGUUUUCCCCUGAUAGUGCUAAGGGGGCCUGGAAGUUUGGACUGGGCAGAGCUCAACACAGCGUGGCAAAGAGGCUGUGGCUAGACUGCCUCUCUGGAUUCCUCGUCACUCAGCAGGGCACCUCUGAGAGAAAUGCC [U1A U81A U130C] was 2.01; that for AACGUAGGUGGUUUUCCCCUGAUAGUGCUAAGGGGGCCUGGAAGUUUGGACUGGGCAGAGCUCAACACAGCGUGGCAAAGUGGCUGUGGCUAGACUGCCUCUCUGGAUUCCUCGCCACUCAGCAGGGCAUCUCGGAGAGAAAUGCC [U1A U115C U134G] was 1.45.
CGCGUAGGUGGUUUUCCCCUGAUAGUGCUAAGGGGGCCUGGAAGUUUGGACUGGGCAGAGCCCAACACAGCGUGGCAAAGUGGCUGUGGCUAGACUGCCUCUCUGGAUUCCUCGUCACUCAGCAGGGCAUCUCUGAGAGAAAUGCC [U1C A2G U62C]: the self-cleavage came out at 0.62.
CACGUAGGUGGUUUUCCCCUGAUGGUGCUAAGGGGGCCUGGAAGUUCGGACUGGGCAGAGCUCAACACAGCGUGGCAAAGUGGCUGUGGCUAGACUGCCUCUCUGGAUUCCUCGUCACUCAGCAGGGCUUCUCUGAGAGAAAUGCC [U1C A24G U47C A129U]: the self-cleavage is 0.92.
The same measure for CACGUAGGUGGUUUUCCCCUGGUAGUGCUAAGGGGGCCUGGAAGUUUGGACUGGGCAGAGCUCAACACAGCGUGGCAAGGUGGCUGUGGCUAGACUGCCUCUCUGGAUUCCUCGUCACUCAGCAGGGCAUCUCUGGGAGAAAUGCC [U1C A22G A79G A136G]: 0.61; for CACGUAGGUGGUUUUCCCCUGAUAGUGCUAUGGGGGCCUGGAAGUUUGGACUUGGCAGAGCACAACACAGCGUGGCAAAGUGGCUGUGGCUAGACUGCCCCUCUGGAUUCCUCGUCACUCGGCAGGGCAUCUCUGAGAGAGAUGCC [U1C A31U G53U U62A U100C A121G A141G]: 0.08; for CGCGUAGGUGGUUUUCCCCUGAUAGUGCUAAGGGGGCCUGGAAGUUUGGACUGGGCAGAGCUCAACACAGCGUGGCAAAGUGGCUGUUGCUAGACUGCCUCUCUGGAUUCCUCGUCACUCAGCAGGGCGUCUCUGAGAGAAAUGCC [U1C A2G G88U A129G]: 0.16.
The value for CACGUAGGUGGUUUUCCCCUGAUUGUGCUAAGGGGGCCUGGAAGUUUGGACUGGGCAGAGCUCAACACAGCGUGGCAAAGUGGCUGUGGCUAGACUGCCUCUCUGGAUUCCCCGUCACUCAGCAGGGCAUCUCUGAGAGAAACGCC [U1C A24U U112C U143C] was 0.69.
Consider CACGUAGGUGGUUUUCCCCUGGUAGUGCUAAGGGGGCCUGGAAGUUCGGACUGGGCAGAGCUCAACACAGCGUGGCAAAGUGGCUGUGGCUAGACUGCCUCUCUGGAUUCCUCGUCACUCAGCAGGGCAUCUUUGAGAGAAAUGCC [U1C A22G U47C C133U], for which the self-cleavage was determined as 2.04.
The same measure for CGCGUAGGUGGUUUUCCCCUGAUAGUGCUAAGGGGGCCUGGAAGUUUGGACUGGGCAGAGCUCAACACAGCGUGGCAAAGUGGCUGUGGCUAGACUGCCUCUCUGGAUUCCUCGUCACUCAGCAGGGCAUCCCUGAGAGAGAUGCC [U1C A2G U132C A141G]: 1.29; for CACGUGGGUGGUUUUCCCCUGAUAGUGCUAAGGGGGCCUGGAAGUUUGGACUGGGCAGAGCUCAACACAGCGUGGCAAAGUGGCUGUGGCUAGACUGCCUCUCUGGGUUCCUCGACACCCAGCAGGGCAUCUCUGAGGGAAAUGCC [U1C A6G A107G U115A U119C A138G]: 0; for CACGUAGGUGGUUUUCCCCUGAUAGUGCUAAGGGGGCCUGGACGUUUGGACUGGGCAGAGCUCAACACAGCGUGGCAAAGUGGCUGUGGCUAGACUGCCUCUCUGGAUUCCUCGUCACUCAGCAGGGCAUCCCUGAGAGGAAUGCC [U1C A43C U132C A140G]: 0.44.
The same measure for CACGUAGGUGGUUUUCCCCUGAUAGUGCUAAGGGGGCCUGGAGGUUUGGACUGGGCAGAGCUCAACACAGCGCGGCAAAGUGGCUGUGGCUAGACUGCCUCUCAGGAUUCCUCGUCACUCAGCAGGGCAUCUCUGAGAGAAAUGCC [U1C A43G U73C U104A]: 0.62; for CACGUUGGUGGUUUUCCCCUGAUAGUGCUAAGGGGGCCUGGAAGUUUGGACUGUGCAGAGCUCAACACAGCGUGGCAGAGUGGCUGUGGCUAGACUGCCUCUCUGGAUUCCUCGUCACUCAGCAGGGCAUCUCUGAGAGAAAUGCC [U1C A6U G54U A78G]: 0.34; for CACGUAGGUGGUUUUCCCCUGAUAGUGCUGAGGGGGCCUGGAAGUUUGGACUGGGCAGAGCUCAACACAGCGUGGCAAAGUGGCUGUGGCUAGACUGCCUCUCCGGAUUCCUCGUCACUCAGCAGGGCAUCUCUGAGAGAAAUGCC [U1C A30G U104C]: 0.33.
The value for CACGUAGGUGGUUUUCCCCUGAUCGUGCUAAGGGGGCCUGGAAGUUUGGACUGGGCAGAGCUCAACACAGCGUGGCAAAGAGGCUGUGGCUAGACUGCCUCUCUGGAUUCCCCGUCACUCAGCAGGGCGUCUCUGAGAGAAAUGCC [U1C A24C U81A U112C A129G] was 1.6.
